Data from article PMC11633528.
Results are given in words; binding and its absence hold for the method and conditions named. For some assays here: Binding seen in cells or lysates may run through a third protein. Some entries that bind do so weakly or less than the wild type. For some assays here: Sequences can lack the tags named with a protein. One block for each molecule: values may come before it.

By UniProt entry, the sequences of proteins in these tests, tags left out. Where a name states a change or a piece, a line headed by the entry shows the natural chain unless it says otherwise.
UniProt P67809: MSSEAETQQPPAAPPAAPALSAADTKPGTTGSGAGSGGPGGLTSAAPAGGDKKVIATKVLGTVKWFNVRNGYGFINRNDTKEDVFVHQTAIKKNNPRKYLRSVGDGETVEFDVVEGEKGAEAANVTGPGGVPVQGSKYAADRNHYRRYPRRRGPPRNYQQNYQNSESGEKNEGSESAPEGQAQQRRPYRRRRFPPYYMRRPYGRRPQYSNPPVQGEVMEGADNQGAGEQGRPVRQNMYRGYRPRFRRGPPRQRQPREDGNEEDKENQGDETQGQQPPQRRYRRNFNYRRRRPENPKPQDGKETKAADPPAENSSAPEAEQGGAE
UniProt Q15717: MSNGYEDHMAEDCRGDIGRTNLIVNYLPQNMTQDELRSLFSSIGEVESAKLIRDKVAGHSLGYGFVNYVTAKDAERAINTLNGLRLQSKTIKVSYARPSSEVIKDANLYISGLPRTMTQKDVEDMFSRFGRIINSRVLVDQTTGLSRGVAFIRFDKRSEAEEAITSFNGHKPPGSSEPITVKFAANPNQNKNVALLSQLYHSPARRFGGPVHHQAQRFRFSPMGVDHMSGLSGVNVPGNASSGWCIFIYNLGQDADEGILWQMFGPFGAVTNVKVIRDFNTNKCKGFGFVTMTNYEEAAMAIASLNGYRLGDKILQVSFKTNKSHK

Experiments:
[1] = target: T1, HCP5‐132aa‐Flag (microprotein encoded by ORF15 of lncRNA HCP5), stably expressed in GC cells (human) (UniProt Q6MZN7); test: co-IP; sequential immunoprecipitation in GC cell lines
T1 sequence: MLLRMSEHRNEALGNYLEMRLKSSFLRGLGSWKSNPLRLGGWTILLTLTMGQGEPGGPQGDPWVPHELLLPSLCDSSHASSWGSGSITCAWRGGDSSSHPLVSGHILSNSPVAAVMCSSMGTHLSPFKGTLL

[2] = target: Y‐box binding protein 1 (YBX1), endogenous in GC cells (human (endogenous in GC cell lines)) (UniProt P67809); test: as above
[3] = target: Y‐box binding protein 1 (YBX1), endogenous in GC cells (human (endogenous in GC cell lines)) (UniProt P67809); test: proximity ligation; YBX1 with ELAVL1 in GC cells, control and HCP5‐132aa knockout
[4] = target: Y‐box binding protein 1 (YBX1), endogenous in GC cells (human (endogenous in GC cell lines)) (UniProt P67809); test: co-IP; YBX1 with ELAVL1 in HCP5‐132aa stable knockout or overexpressing GC cell lines
[5] = target: T1, HCP5‐132aa‐Flag (microprotein encoded by ORF15 of lncRNA HCP5), stably expressed in GC cells (human); test: co-IP; GC cells, IP lysis buffer, primary antibody overnight at 4 °C, Protein A/G beads, western blotting
[6] = target: T1, HCP5‐132aa‐Flag (microprotein encoded by ORF15 of lncRNA HCP5), stably expressed in GC cells (human); test: proximity ligation; GC cells stably expressing HCP5‐132aa‐Flag; anti‐Flag mouse monoclonal and anti‐YBX1/ELAVL1 rabbit monoclonal; Duolink
[7] = target: HA‐tagged full‐length YBX1 (UniProt P67809); test: co-IP; HEK‐293T co-transfected with YBX1 and ELAVL1 and increasing doses of HCP5‐132aa‐Flag
[8] = target: T2, HCP5‐132aa C‐terminal region (67‐132aa), Flag‐tagged truncation mutant (human) (UniProt Q6MZN7); test: co-IP; HEK‐293T co-transfected with HA‐tagged YBX1‐CSD and Flag‐tagged HCP5‐132aa truncation mutants; IP with anti‐Flag antibody
T2 sequence: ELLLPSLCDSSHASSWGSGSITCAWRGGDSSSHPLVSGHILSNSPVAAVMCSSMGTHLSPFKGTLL

[9] = target: T3, HCP5‐132aa N‐terminal region (1‐66aa), Flag‐tagged truncation mutant (human) (UniProt Q6MZN7); test: as above
T3 sequence: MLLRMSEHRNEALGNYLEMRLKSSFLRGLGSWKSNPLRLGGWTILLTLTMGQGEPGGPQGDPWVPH

YBX1‐GST = YBX1‐GST (UniProt P67809); test: pull-down; GST pull-down: purified GST‐tagged protein incubated with His‐tagged protein and GST resin, 4 °C, 3 h; washes with NETN buffer (20 mM Tris‐HCl pH 8.0, 200 mM NaCl, 0.5 mM EDTA, 0.5% NP‐40); western blotting; both purified
[10] = target: HA‐tagged full‐length YBX1 (UniProt P67809); test: co-IP; HEK‐293T co-transfected with Flag‐tagged HCP5‐132aa and HA‐tagged full‐length YBX1 or YBX1 fragments; IP with anti‐HA antibody

binding [1]: binds | binding [2]: binds | binding [3]: binds | binding [4]: binds | binding [5]: binds | binding [6]: binds
Molecule: ELAVL1, endogenous in GC cells (from UniProt Q15717 1-326)

binding [7]: binds
Molecule: ELAVL1, transfected in HEK‐293T cells (from UniProt Q15717 1-326)

binding [1]: binds | binding [5]: binds | binding [6]: binds
Molecule: Y‐box binding protein 1 (YBX1), endogenous in GC cells (from UniProt P67809 1-324)

binding [8]: binds | binding [9]: no binding
Molecule: HA‐tagged YBX1‐CSD (from UniProt P67809 61-125) (domain or fragment)

binding (YBX1‐GST): binds
B1: HCP5‐132aa‐His (protein, UniProt Q6MZN7 1-132)
chain: T1 sequence

binding [10]: binds
B2: HCP5‐132aa‐Flag, transfected in HEK‐293T cells (protein, UniProt Q6MZN7 1-132)
chain: T1 sequence
